According to PubChem BioAssay AID1346428 (National Center for Advancing Translational Sciences (NCATS), 2018):
Several values for one entry are separate records, joined by “and”; a condition that tells them apart may be missing. Equal entries are not always repeated. Out of some 48,000 compounds screened, about 1,200 (2.5%) were called active. Not shown: some 2% with an inconclusive outcome.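 Rule for the calls: active = activation of at least 60% and not above a set upper limit (about 1 call in 100 departs from these limits); inconclusive = activation of 40% to 60%, or above that upper limit; inactive = activation under 40%.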 This is one part of the list.
Note: 0% is about no effect.

What follows are compounds tested against Probable G-protein coupled receptor 32 (Homo sapiens) (UniProt O75388) (assay: qHTS for Agonists of Human Resolvin D1 Receptor DRV1). Settings: CHO-K1 GPR32 beta-arrestin PathHunter luminescence, 90 min; at 76.9 µM; active compounds read high; zero percent set by DMSO-only wells.
Sequence of UniProt O75388 (O75388 whole entry, looked up): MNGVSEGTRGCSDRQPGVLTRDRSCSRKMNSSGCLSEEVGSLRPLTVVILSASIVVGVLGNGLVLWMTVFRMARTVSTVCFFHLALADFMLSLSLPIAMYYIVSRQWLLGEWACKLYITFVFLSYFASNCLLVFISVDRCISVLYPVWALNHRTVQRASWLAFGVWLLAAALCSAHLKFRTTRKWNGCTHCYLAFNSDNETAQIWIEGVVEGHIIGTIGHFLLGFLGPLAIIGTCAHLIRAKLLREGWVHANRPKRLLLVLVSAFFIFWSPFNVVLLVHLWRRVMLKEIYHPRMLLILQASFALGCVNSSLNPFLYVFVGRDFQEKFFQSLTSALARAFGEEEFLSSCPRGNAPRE
Method in brief: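 Cells are plated overnight, treated with compounds in DMSO for 90 minutes at 37 °C, and developed with PathHunter detection reagent for 1 hour before luminescence is read; signal reflects beta-arrestin binding to GPR32 in engineered CHO-K1 cells.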
With CCc1ccc(C(=O)c2cn(CC(=O)Nc3ccc4c(c3)OCO4)c3ccc(Cl)cc3c2=O)cc1 the activation was inactive: 34.3%. For Cc1ccc(NC(=O)Cn2nc(C(F)(F)F)c3c2CCCC3)cc1, the activation was active: 77.1%. For CCN(CC)c1ccc(NC(=O)C2CCN(S(=O)(=O)c3c(C)noc3/C=C/c3ccccc3F)CC2)c(C)c1, the activation was inactive: -22.4%. In the case of CC(C)(C)C1CCc2c(sc3nc(-c4cc5cc(Cl)ccc5oc4=O)[nH]c(=O)c23)C1 (centres undefined), the activation is reported as inactive: 2.58%. With CCn1c(CNC(=O)c2ccc(OC)cc2)nnc1SCC(=O)Nc1cccc(C)c1 the activation was inactive: 15.1%. With Cc1ccc(S(=O)(=O)N2CCCc3cc(NC(=O)c4ccc(Cl)cc4)ccc32)cc1 the activation was inactive: -10.5%. For CCOc1ccc(CCNC(=O)c2c3c(nc4ccccc24)C(=O)N(C2CCCCC2)C3)cc1, the activation was inactive: -0.61%. With NC(=S)NCCC[C@H](N)C(=O)O the activation was inactive: -3.51%. With Cc1ccc(S(=O)(=O)NCCc2nnc3ccc(SCC(=O)Nc4c(C)cc(C)cc4C)nn23)cc1 the activation was inactive: -9.11%. In the case of COc1ccccc1NC(=O)c1cc2cc3ccc(OC)c(Cl)c3nc2s1, the activation is reported as inactive: -2.48%. With COC(=O)c1c(NC(=O)c2cc(=O)c3cc(C)cc(C)c3o2)sc2c1CCC2 the activation was inactive: -3.58%. With CCOC(=O)c1ccc(NC(=O)c2nc(SCc3ccc(F)cc3)ncc2Cl)cc1 the activation was inactive: -27.7%. O=C(NCCc1ccccc1Cl)c1cc2ccccn2n1 was tested, and the activation was inactive: 4.73%. Cc1ccc(CC(=O)NCc2nc(-c3ccccc3)no2)cc1 was tested, and the activation was inactive: -22.2%. With CCCCn1c(=O)c2oc3ccccc3c2n(Cc2ccc(C)cc2)c1=O the activation was inactive: -20.5%. In the case of Cc1cc(SCC(=O)Nc2ccc(F)cc2F)nc(=O)[nH]1, the activation is reported as inactive: -2.06%. In the case of COc1ccc2ncc3c(-c4ccc(C)c(C)c4)nn(CC(=O)Nc4ccccc4)c3c2c1, the activation is reported as inactive: -14.6%. For CCc1ccc(CNC(=O)C2COc3ccccc3C2)cc1 (centres undefined), the activation was inactive: -11.5%. Cc1cccc(CN2C(=O)c3ccccc3S(=O)(=O)c3ccc(C(=O)OCC4CCCO4)cc32)c1 (centres undefined) was tested, and the activation was inactive: -48.5%. Cc1cccc(C(=O)Nc2cc(-c3ccccc3F)nn2-c2ccccc2)c1 was tested, and the activation was inactive: 15%. In the case of CCOc1ccc(C2CC(=O)Nc3c2c(=O)[nH]c2ncnn32)cc1 (centres undefined), the activation is reported as inactive: -36.3%. CCn1c(CNC(=O)c2ccc(OC)cc2)nnc1SCC(=O)Nc1ccc(F)cc1 was tested, and the activation was inactive: 28.2%. In the case of CCc1ccc(C(=O)c2cn(CC(=O)Nc3ccc(F)cc3)c3ccc(F)cc3c2=O)cc1, the activation is reported as inactive: 15.3%. For Cc1ccc(N2CC(NC(=O)C3CCCCC3)CC2=O)cc1 (centres undefined), the activation was inactive: -5.61%. In the case of CCOC(=O)c1cc(S(=O)(=O)N2CCN(c3ccccc3OC)CC2)[nH]n1, the activation is reported as inactive: -10.1%. For COc1ccc(-c2cc(C(=O)Nc3c(C)nn(Cc4ccccc4C)c3C)no2)cc1, the activation was inactive: 24.2%. In the case of Cc1cccc(C)c1NC(=O)CC12CCCN1CCC2, the activation is reported as inactive: -10.2%. In the case of COc1cc(NS(=O)(=O)c2cc3[nH]c(=O)[nH]c3cc2C)cc(OC)c1OC, the activation is reported as inactive: 3.63%. For Cc1ccc(CCNC(=O)c2sc3nc4n(c(=O)c3c2C)CCCC4)cc1, the activation was inactive: -6.27%. In the case of COc1ccccc1CNC(=O)c1ccc2c(c1)nc(C)n2-c1cccc(C)c1, the activation is reported as inactive: -22%. With Cc1ccc2onc(CNC(=O)N3CCN(c4cc(Cl)ccc4C)CC3)c2c1 the activation was inactive: -31.6%. With CC(CNC(=O)c1cc2cc(S(=O)(=O)N3CCCCC3)ccc2n1C)c1ccccc1 (centres undefined) the activation was inactive: -12.7%. In the case of Cc1ccc2c(c1)-c1c(cnc3cc(-c4ccc(Cl)cc4)nn13)CO2, the activation is reported as inactive: -8.76%. In the case of COc1ccc(NC(=O)C(C)N2Cc3ccccc3C2=O)cc1OC (centres undefined), the activation is reported as inactive: -5.96%. In the case of COc1ccc(C(C)=O)cc1CSc1nc(NCc2ccccc2)c2ccccc2n1, the activation is reported as inactive: -29.3%. O=C(O)c1ccc(OCCCOc2ccc(C(=O)O)cc2)cc1 was tested, and the activation was inactive: 5.11%. With Cc1ccc2c(c1)c(=O)c1ccccc1n2CCCC(=O)Nc1ccc(C)c(C)c1 the activation was inactive: -1.67%. For CC(C)CC(=O)n1nc(-c2ccco2)nc1NCc1ccc(Cl)cc1, the activation was inactive: 5.66%. Cc1ccc(COC(=O)c2[nH]c3c(c2C)C(=O)CC(c2ccc(Cl)cc2)C3)cc1 (centres undefined) was tested, and the activation was inactive: 7.3%. CC(C)OC(=O)c1ccc(NC(=O)CSc2nc(-c3cccs3)cc(C(F)(F)F)n2)cc1 was tested, and the activation was inactive: -22.4%. In the case of CCOC(=O)c1cnc2ccc(OCC)cc2c1NCCc1ccc(OC)c(OC)c1, the activation is reported as inactive: -10.1%. In the case of CCOc1ccc(S(=O)(=O)NCc2cccn2Cc2cccc(C)c2)cc1, the activation is reported as inactive: -42.8%. In the case of Cc1ccccc1C(=O)Nc1ccc(C(=O)N2CCCC(O)c3cc(Cl)ccc32)c(C)c1 (centres undefined), the activation is reported as inactive: -1.94%. For CC(C)COc1ccc(C(=O)N(Cc2cccc(F)c2)C2CCS(=O)(=O)C2)cc1 (centres undefined), the activation was inactive: -16.1%. CCOC(=O)c1cc(-c2ccccc2)n(-c2cccc(C(=O)NC(C)(C)C)c2)c1C was tested, and the activation was inactive: -22.5%. In the case of CCCn1c(=N)c(C(=O)NC2CCCCC2)cc2c(=O)n3cc(C)ccc3nc21, the activation is reported as inactive: 17.3%. In the case of CCCn1c2ccccc2c2cnn(CC(=O)NCCCOC(C)C)c(=O)c21, the activation is reported as inactive: -1.32%. With Cc1ccc(C)c(N2CCN(C(c3ccccc3)c3nnc(-c4ccccc4)o3)CC2)c1 (centres undefined) the activation was inactive: -36.1%. In the case of CCc1cccc(C)c1NC(=O)C(NS(=O)(=O)c1ccc2c(c1)CCC(=O)N2)c1ccccc1 (centres undefined), the activation is reported as inactive: -6.28%. In the case of CCN1CCc2c(sc(-n3cccc3)c2C(CCC(C)C)NC(=O)NCCC(=O)OC)C1 (centres undefined), the activation is reported as inactive: -24.6%. CC[N+](CC)(CC)CCOc1ccc(/C=C/c2ccccc2)cc1 was tested, and the activation was inactive: 26.5%. Cc1ccc(NS(=O)(=O)c2c(C)nc3sc(C)c(C)n3c2=O)cc1F was tested, and the activation was inactive: -9.06%. In the case of NCC1OC(O[C@H]2[C@H](O)[C@@H](OC3C(O)C(N)CC(N)C3OC3OC(CO)C(O)C(O)C3N)O[C@@H]2CO)C(N)C(O)C1O (some centres undefined), the activation is reported as inactive: 4.29%. For O=C(CSc1nc2ccsc2c(=O)n1-c1ccc(Br)cc1)NCc1ccc(Cl)cc1, the activation was inactive: -0.755%. For COc1ccc(CCNC(=O)Cc2ccc(NC(=O)N3CCSc4ncccc43)cc2)cc1OC, the activation was inactive: 4.71%. With Cc1cccc(NC(=O)c2cc3c([nH]c2=O)CC(c2ccccc2)CC3=O)c1 (centres undefined) the activation was inactive: -9.8%. With COc1cccc(-c2nc(CS(=O)(=O)CC(=O)Nc3ccc(C)c(Cl)c3)c(C)o2)c1 the activation was inactive: -19.7%. With COc1cccc(CNC(=O)Cn2cccc2C(=O)c2ccccc2)c1 the activation was inactive: -20.3%. With COc1ccc(C(=O)N2CCN(c3nc4c(OC)cccc4s3)CC2)cc1OC the activation was inactive: 26.3%. With O=C(Cn1c(=O)n(Cc2ccc(F)cc2)c(=O)c2sc3ccccc3c21)Nc1ccc(F)cc1F the activation was inactive: -25.7%. In the case of COC(=O)CCNC(=O)N1CCN(c2nnc(C)c3c(C)n(-c4ccccc4)nc23)CC1, the activation is reported as inactive: -6.11%. In the case of COc1cc(C(=O)NCc2nc(-c3ccc(Cl)cc3)no2)cc(OC)c1OC, the activation is reported as inactive: -5.33%. With COc1ccc(CNc2ncnc3c2c(-c2ccccc2)cn3-c2cccc(C)c2)cc1 the activation was inactive: -35.3%. With CCc1cc(C(=O)NCc2ccc(F)cc2)no1 the activation was inactive: -0.217%. With CN(C)C(=O)C(CCN1CCC(O)(c2ccc(Cl)cc2)CC1)(c1ccccc1)c1ccccc1 the activation was inactive: 38.6% and inactive: -19.2%. CC(=O)c1ccc(S(=O)(=O)N2CCn3cccc3C2c2ccc(F)c(F)c2)cc1 (centres undefined) was tested, and the activation was inactive: -9.81%. Cc1ccc(N2CC(NC(=O)C3CCCC3)CC2=O)cc1C (centres undefined) was tested, and the activation was inactive: 4.83%. For CC(C)Oc1ccc(CNC(=O)c2ccc3c(c2)N(C)C(=O)C2CCCCN32)cc1 (centres undefined), the activation was inactive: -13.5%. With CCN1CCN(c2cc(C)c3cc(NC(=O)/C=C/c4ccc(OCCC(C)C)cc4)ccc3n2)CC1 the activation was inactive: -13.2%. For COc1cccc(NC(=O)C2CCN(S(=O)(=O)c3c(C)noc3/C=C/c3cccs3)CC2)c1, the activation was inactive: -25.5%. In the case of O=C(COc1ccccc1Cl)Nc1nc(-c2ccc(F)cc2)ns1, the activation is reported as inactive: 24.5%. For CCc1nnc(SCc2nc(-c3cccc(C)c3)oc2C)c2cc3sc(C)cc3n12, the activation was inactive: -14.4%. For COc1ccc(C(=O)Nc2cc(NC(=O)c3ccco3)ccc2OC)cc1Cl, the activation was inactive: -10.9%. With O=C(CSc1nccn1-c1ccc(F)cc1)Nc1cccc2ccccc12 the activation was inactive: -25.8%. For Cc1ccc(NC(=O)CSc2nc(C3CCCC3)nc3c2c(=O)n(C)c(=O)n3C)c(C)c1, the activation was inactive: -0.178%. For CCOC(=O)c1c(-c2ccccc2)oc2cc(Br)c(OCc3ccccc3)cc12, the activation was inactive: -4.44%. In the case of Cc1ccc(OCCCCn2nnc3sc4c(c3c2=O)CCC(C)C4)cc1 (centres undefined), the activation is reported as inactive: -0.564%. CCn1c(=N)c(C(=O)NC2CCCC2)cc2c(=O)n3cc(C)ccc3nc21 was tested, and the activation was inactive: -2.17%. O=C(Cn1c(=O)n(-c2ccc(F)c(Cl)c2)c(=O)c2sc3ccccc3c21)NC1CCCCC1 was tested, and the activation was inactive: -3.58%. In the case of Cc1ccc(Cl)cc1Nc1nn2c(=O)c3ccc(C(=O)NC4CCC(C)CC4)cc3nc2s1 (centres undefined), the activation is reported as inactive: 10.9%. In the case of CN1CCN(C2(CNC(=O)COc3ccc(C(C)(C)C)cc3)CCCCC2)CC1, the activation is reported as inactive: -11.3%. In the case of CCN(CC)S(=O)(=O)c1ccc2c(c1)N(CC(=O)NCCCN1CCN(c3cc(C)ccc3C)CC1)C(=O)CO2, the activation is reported as inactive: -24.1%. With CCOc1ccc(C(=O)NCCc2csc(-c3cccnc3)n2)cc1 the activation was inactive: 36.9%. In the case of Cc1ccc(NC(=O)C2CCCN(S(=O)(=O)c3cccc4nsnc34)C2)c(C)c1 (centres undefined), the activation is reported as inactive: -9.15%.
